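Where inhibition never reached the appropriate level, the endpoint shown equals the highest concentration tested. Otherwise, values were interpolated linearly from a five-concentration, 48-hour dose response in 96-well plates. GI50 = concentration required for 50% inhibition of growth. TGI is the concentration that stops growth completely.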 Peptide text beside a SMILES is read from it. * marks the point of attachment. Cbz = O=C(OCc1ccccc1)*; Bn = c1ccc(C*)cc1 Bounds are passed on as bounds.

For this test, the system named is NCI-H322M lung. The test can be described thus: growth of human tumour cells (NCI), 48 h.

On to `CCOC(=O)c1c(N2CCCC2)[nH]c(=O)c(C(c2ccc(Cl)c([N+](=O)[O-])c2)c2c(O)c(C(=O)OCC)c(N3CCCC3)[nH]c2=O)c1O`, for which the TGI is over 100 µM.

As to `O=C1NC2(CCCCC2)C(=O)N1CCN(CCCl)CCCl`, the GI50 is over 25 µM and the TGI is over 250 µM.

Turning to `COc1cc([N+](=O)[O-])c(S(=O)(=O)O)cc1-n1nc(C(=O)Nc2ccccc2)n[n+]1-c1cc(S(=O)(=O)[O-])c([N+](=O)[O-])cc1OC`, the TGI was over 100 µM.

In turn, `Nc1ncc(C=O)c(NCC2(CO)CCC2)n1` gave a TGI of over 100 µM.

`C=CCCCN1CCCC(C)C1=S` (stereo not given) registered a TGI of over 100 µM.

On to `NC(=O)c1ccc([N+](=O)[O-])cc1`, for which the TGI was over 100 µM.

With `N#CC1(C#N)C=CC(=C2OCC3CCCN23)C=C1` (stereo not given), the TGI is over 100 µM.

`CCc1cc2c(O)c(c1)Cc1cc(CC)cc(c1O)Cc1cc(CC)cc(c1O)Cc1cc(CC)cc(c1O)Cc1cc(CC)cc(c1O)Cc1cc(CC)cc(c1O)Cc1cc(CC)cc(c1O)C2` gave a TGI of over 100 µM.

Compound `O=C(c1ccc([N+](=O)[O-])cc1)C(Br)C(Br)c1ccnc2ccccc12` (stereo not given) gave a TGI of 29.4 µM.

In turn, `c1ccc(Cn2c(-c3ccc(-c4ccccc4)cc3)cc3ccccc32)cc1` displayed a TGI of over 100 µM.

Compound `COC(=O)C(Cc1ccc(O)cc1)NC(=O)C(COCc1ccccc1)NC(=O)OCc1ccccc1` (stereo not given) (Cbz-Ser(Bn)-Tyr-OMe; configuration not given here) yielded a TGI of 34.9 µM.

In turn, `O=C(COc1ccccc1)N(C(=O)N1CCN(c2ccccc2)CC1)S(=O)(=O)c1ccccc1` showed a TGI of over 100 µM.

With `Cc1cn(Cc2cccc(C3=NCCCN3)c2)c(=O)n(Cc2cccc(C3=NCCCN3)c2)c1=O`, the TGI is over 100 µM.

As for `Cc1ccc(Cl)c(NS(=O)(=O)c2ccc(-c3cnc(C4CC4)o3)cc2)c1`, the GI50 was 0.598 µM and the TGI was over 100 µM.

With `Cc1c2ccncc2c(C)c2c1sc1ccccc12`, the TGI worked out at 70 µM.

In turn, `COc1ccc2c(c1)CCc1cc(OC)ccc1/[N+]([O-])=[N+]\2[O-]` showed a TGI of over 56.5 µM.

For the compound `CCn1c(=O)c(C(=O)O)c(Cl)c2cc3c(cc21)OCO3`, the TGI was over 100 µM.

Regarding `N=C(N)c1ccc(-c2ccc(-c3ccc4ccccc4c3)s2)s1`, the GI50 is 1.64 µM and the TGI worked out at 3.73 µM.

As to `O=C(Nc1ccccc1)OC1OC(COC(=O)c2ccccc2)C(OC(=O)c2ccccc2)C1OS(=O)(=O)c1ccc([N+](=O)[O-])cc1` (stereo not given), the TGI was over 100 µM.

`COC1=C2CC(C)CC(OC)C(OC(=O)CN)[C@H](C)/C=C(\C)C(OC(N)=O)C(OC)/C=C\C=C(/C)C(=O)NC(=CC1=O)C2=O` (stereo not given in full) showed a TGI of 25.3 µM.

In turn, `C[n+]1c2ccccc2c(CNCC(=O)O)c2ccccc21` yielded a TGI of 23 µM.

Regarding `Fc1ccc(-c2nn3ccccc3c2-c2ccncc2)cc1`, the GI50 was over 25 µM and the TGI is over 25 µM.

As to `COC(=O)CN1C(=O)C2(C(=O)OC)OC1(c1ccc([N+](=O)[O-])cc1)C1C(=O)N(c3ccccc3)C(=O)C12` (stereo not given), the TGI was over 100 µM.

`Cc1c2ccncc2c(C)c2c1[nH]c1ccc(Oc3ccccc3)cc12` returned a TGI of over 100 µM.

`CC(C)(C)[C@H]1CO[C@]2(c3ccccc3)[C@@H]3C[C@@H]3C(=O)N12` gave a TGI of over 100 µM.

`COc1ccc(OC)c(NC(=O)C(=O)CC(=O)c2sc(-n3nc(-c4ccccc4)cc3-c3ccccc3)nc2C)c1` displayed a TGI of over 100 µM.

The compound `CCCCSCC(NC(=O)/C=C/c1c(C)[nH]c(=O)[nH]c1=O)C(=O)OC` (stereo not given) registered a TGI of 269 µM.

`CC1(C)c2ccccc2N2O[C@@H]3C(=O)N(c4ccccc4)C(=O)[C@@H]3C21c1ccccc1` (stereo not given in full) registered a TGI of over 100 µM.

`C/C(=N\Nc1nc2ccccc2[nH]1)c1cnccn1`: the TGI was over 74.8 µM.

Take `Clc1ccc2c(c1)N(C1CCCN(Cc3ccccc3)C1)c1ccccc1S2` (stereo not given): the GI50 was 4.88 µM and the TGI is over 100 µM.

`CN(/N=C/c1ccccn1)C1=NCCCN1` returned a TGI of over 100 µM.

With `O=C(NCCOCCOCCOCCNC(=O)c1cc2c(o1)C(=O)c1ccccc1C2=O)NC12CC3CC(CC(C3)C1)C2`, the GI50 was 1.49 µM and the TGI was 2.94 µM.

For the compound `CCOC(=O)c1[nH]c2cc(OC)c(OC)cc2c1CN(C)C`, the TGI was over 100 µM.

For `c1ccc(-c2c(-c3cccs3)[nH]c(-c3cccs3)c2-c2ccccn2)nc1`, the TGI was over 100 µM.

Take `COc1cc2ncnc(Nc3ccc(Oc4ccnc(C)c4)c(C)c3)c2cc1NC(=O)CC1CCSS1` (stereo not given): the GI50 is 1.07 µM and the TGI worked out at 2.74 µM.

As for `O=C1OCC(c2ccc(Cl)cc2)=C1Cl`, the TGI turned out to be 55.1 µM.

Consider `O=C1Nc2ccccc2/C1=C\c1nc(-c2ccccc2F)n2ccccc12`, for which the GI50 was 4.16 µM and the TGI stood at 14.1 µM.

The values are drawn from PubChem BioAssay (NCI).
